From patent US11807625B2, “Capsid inhibitors for the prevention of HIV” (Gilead Sciences, Inc., priority 2019, dated 2023)
Values joined by “and” are separate entries in the source; they are usually repeats but may differ in a detail not shown here. Equal entries are not always repeated. The source gives many values for each of these; only a part stands here.

Assay: PK of compound of Formula (Ia) after single intramuscular dose of solution formulations in Wistar Han rats
Format: in vivo
Settings: IM 100 mg/kg
Procedure: Formulations containing the compound of Formula (Ia), or a pharmaceutically acceptable salt thereof, were prepared as solutions and optionally administered subcutaneously or intramuscularly to rats, rabbits, and/or dogs.
A solution of about 400 mg/ml of the compound of Formula (Ia) having 21.13 w/w % water, 45.25 w/w % PEG 300, and 33.61 w/w % of a sodium salt of a compound of Formula (Ia) was prepared. The solution was administered intramuscularly to Wistar Han rats at a dose of about 100 mg/kg and beagle dogs at a dose of about 30 mg/kg.
A solution of about 400 mg/ml of the compound of Formula (Ia) having 19.18 w/w % water, 41.09 w/w % PEG 300, 33.61 w/w % of a sodium salt of a compound of Formula (Ia), and 6.12 w/w % poloxamer 188 was prepared. The solution was administered intramuscularly to Wistar Han rats at a dose of about 100 mg/kg and beagle dogs at a dose of about 30 mg/kg.
A solution of about 500 mg/ml of the compound of Formula (Ia) having 16.93 w/w % water, 36.22 w/w % PEG 300, 41.85 w/w % of a sodium salt of a compound of Formula (Ia), and 5.00% ethanol was prepared. The solution was administered intramuscularly to Wistar Han rats at a dose of about 100 mg/kg and beagle dogs at a dose of about 30 mg/kg.
A solution of about 500 mg/ml of the compound of Formula (Ia) having 14.50 w/w % water, 31.04 w/w % PEG 300, 41.85 w/w % of a sodium salt of a compound of Formula (Ia), 5.00% ethanol, and 7.61 w/w % poloxamer 188 was prepared. The solution was administered intramuscularly to Wistar Han rats at a dose of about 100 mg/kg and beagle dogs at a dose of about 30 mg/kg.

In the case of `CC(C)(C#Cc1ccc(-c2ccc(Cl)c3c(NS(C)(=O)=O)nn(CC(F)(F)F)c23)c([C@H](Cc2cc(F)cc(F)c2)NC(=O)Cn2nc(C(F)(F)F)c3c2C(F)(F)[C@@H]2C[C@H]32)n1)S(C)(=O)=O` [compound of Formula (Ia)], the Plasma concentration (1.00 h, individual rats, solution M, 500 mg/mL) was 166 nM and 159 nM and 233 nM, the Plasma concentration (3.00 h, individual rats, solution M, 500 mg/mL) was 432 nM and 353 nM and 530 nM and the Plasma concentration (8.00 h, individual rats, solution M, 500 mg/mL) was 563 nM and 478 nM and 692 nM. The Plasma concentration (24.0 h, individual rats, solution M, 500 mg/mL) was 824 nM and 573 nM and 865 nM, the Plasma concentration (48.0 h, individual rats, solution M, 500 mg/mL) was 599 nM and 575 nM and 689 nM and the Plasma concentration (72.0 h, individual rats, solution M, 500 mg/mL) was 179 nM and 519 nM and 480 nM and 527 nM. The Plasma concentration (96.0 h, individual rats, solution M, 500 mg/mL) was 485 nM and 464 nM and 561 nM, the Plasma concentration (168 h, individual rats, solution M, 500 mg/mL) was 433 nM and 626 nM and 676 nM and the Plasma concentration (Solution H (~400 mg/mL), Wistar Han rats, individual animals #1-#4, 1.00 h) was 104 nM and 205 nM and 76.2 nM and 213 nM. For the same molecule, the Plasma concentration (Solution H (~400 mg/mL), Wistar Han rats, individual animals #1-#4, 3.00 h) was 314 nM and 168 nM and 320 nM, the Plasma concentration (Solution H (~400 mg/mL), Wistar Han rats, individual animals #1-#4, 8.00 h) was 216 nM and 380 nM (2×) and 164 nM and the Plasma concentration (Solution H (~400 mg/mL), Wistar Han rats, individual animals #1-#4, 24.0 h) was 340 nM and 473 nM and 265 nM and 677 nM. The Plasma concentration (Solution H (~400 mg/mL), Wistar Han rats, individual animals #1-#4, 48.0 h) was 586 nM and 346 nM and 596 nM, the Plasma concentration (Solution H (~400 mg/mL), Wistar Han rats, individual animals #1-#4, 72.0 h) was 343 nM and 400 nM and 281 nM and 564 nM and the Plasma concentration (Solution H (~400 mg/mL), Wistar Han rats, individual animals #1-#4, 96.0 h) was 415 nM and 534 nM and 305 nM and 655 nM. For the same molecule, the Plasma concentration (Solution H (~400 mg/mL), Wistar Han rats, individual animals #1-#4, 168 h) was 599 nM and 547 nM and 314 nM and 892 nM, the Plasma concentration (Solution J (~400 mg/mL, poloxamer 188), Wistar Han rats, individual animals #1-#4, 1.00 h) was 230 nM and 199 nM and 149 nM and 418 nM and the Plasma concentration (Solution J (~400 mg/mL, poloxamer 188), Wistar Han rats, individual animals #1-#4, 3.00 h) was 450 nM and 312 nM and 554 nM. For the same molecule, the Plasma concentration (Solution J (~400 mg/mL, poloxamer 188), Wistar Han rats, individual animals #1-#4, 8.00 h) was 539 nM and 426 nM and 555 nM, the Plasma concentration (Solution J (~400 mg/mL, poloxamer 188), Wistar Han rats, individual animals #1-#4, 24.0 h) was 514 nM and 475 nM and 669 nM and the Plasma concentration (Solution J (~400 mg/mL, poloxamer 188), Wistar Han rats, individual animals #1-#4, 48.0 h) was 421 nM and 535 nM and 558 nM. For the same molecule, the Plasma concentration (Solution J (~400 mg/mL, poloxamer 188), Wistar Han rats, individual animals #1-#4, 72.0 h) was 380 nM and 458 nM and 442 nM, the Plasma concentration (Solution J (~400 mg/mL, poloxamer 188), Wistar Han rats, individual animals #1-#4, 96.0 h) was 398 nM and 474 nM and 466 nM and the Plasma concentration (Solution J (~400 mg/mL, poloxamer 188), Wistar Han rats, individual animals #1-#4, 168 h) was 526 nM and 409 nM and 450 nM. For the same molecule, the Plasma concentration (Solution K (~500 mg/mL, ethanol), Wistar Han rats, individual animals #1-#4, 1.00 h) was 214 nM and 61.9 nM and 173 nM and 135 nM, the Plasma concentration (Solution K (~500 mg/mL, ethanol), Wistar Han rats, individual animals #1-#4, 3.00 h) was 261 nM and 127 nM and 207 nM and 240 nM and the Plasma concentration (Solution K (~500 mg/mL, ethanol), Wistar Han rats, individual animals #1-#4, 8.00 h) was 297 nM and 126 nM and 231 nM and 219 nM. The Plasma concentration (Solution K (~500 mg/mL, ethanol), Wistar Han rats, individual animals #1-#4, 24.0 h) was 245 nM and 416 nM and 345 nM, the Plasma concentration (Solution K (~500 mg/mL, ethanol), Wistar Han rats, individual animals #1-#4, 48.0 h) was 282 nM and 436 nM and 347 nM and the Plasma concentration (Solution K (~500 mg/mL, ethanol), Wistar Han rats, individual animals #1-#4, 72.0 h) was 403 nM and 495 nM and 319 nM. The Plasma concentration (Solution K (~500 mg/mL, ethanol), Wistar Han rats, individual animals #1-#4, 96.0 h) was 337 nM and 427 nM and 301 nM and the Plasma concentration (Solution K (~500 mg/mL, ethanol), Wistar Han rats, individual animals #1-#4, 168 h) was 422 nM and 609 nM and 359 nM.
